Source: the supplement of paper PMC4604168 (melanoma cell lines)
The other results are listed elsewhere or left out. Many values rest on one well or one pass, so single values are uncertain.

Tested on: MZ2-MEL
Test: cell count relative to DMSO control; melanoma cells; higher = more viable cells
Settings: library dose: standard library concentration; 72 h
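Also: cells treated in 1,536-well plates, then fixed and DAPI-stained, with nuclei counted from automated high-throughput microscope images.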

**Q.** COc1cc(Nc2ncc(F)c(Nc3ccc4c(n3)NC(=O)C(C)(C)O4)n2)cc(OC)c1OC [Tamatinib] + CC1(C)NC(=O)N(c2ccc([N+](=O)[O-])c(C(F)(F)F)c2)C1=O [nilutamide] (first compound 2 µM, partner dose 5 µM) was tested. Which cell count did it give?
**A.** 77.4%

**Q.** With O=C(O)c1ccc(-c2c[nH]c3ncc(-c4ccccc4)cc23)cc1C1CCCC1 + COc1ccc2c(c1)CCC1C2CCC2(C)C(NCCCCCCN3C(=O)C=CC3=O)CCC12 [U73122] (first compound 0.8 µM, partner dose 2 µM) as the compound, how does the cell count read?
**A.** 73%

**Q.** For O=c1[nH]nc(Sc2ncc([N+](=O)[O-])s2)n1-c1ccc2c(c1)OCCO2 + CO[C@@H]1[C@H](N(C)C(=O)c2ccccc2)C[C@H]2O[C@]1(C)n1c3ccccc3c3c4c(c5c6ccccc6n2c5c31)C(=O)NC4 [Midostaurin] (first compound 1 µM, partner dose 0.4 µM), which cell count is on record?
**A.** 56.9%

**Q.** For Cn1cncc1[C@@](N)(c1ccc(Cl)cc1)c1ccc2c(c1)c(-c1cccc(Cl)c1)cc(=O)n2C [tipifarnib] + NCC(=O)Nc1ccc(-n2nc(C(F)(F)F)cc2-c2ccc3c(ccc4ccccc43)c2)cc1 [OSU03012] (first compound 0.05 µM, partner dose 5 µM), which cell count is on record?
**A.** 102%

**Q.** With C[C@@H]1CCN(C(=O)CC#N)C[C@@H]1N(C)c1ncnc2[nH]ccc12 + Cc1cc([N+](=O)[O-])ccc1NS(=O)(=O)c1cc(Cl)ccc1Cl [FH535] (first compound 5 µM, partner dose 5 µM) as the compound, how does the cell count read?
**A.** 88.4%

**Q.** Which cell count does the source give for CC1(C)NC(=O)N(c2ccc([N+](=O)[O-])c(C(F)(F)F)c2)C1=O [nilutamide] + N#Cc1c(O)c2c(-c3ccc(-c4ccccc4O)cc3)csc2[nH]c1=O [A769662] (first compound 5 µM, partner dose 10 µM) here?
**A.** 120%

**Q.** O=c1[nH]nc(Sc2ncc([N+](=O)[O-])s2)n1-c1ccc2c(c1)OCCO2 + Cc1ccc(Nc2nccc(N(C)c3ccc4c(C)n(C)nc4c3)n2)cc1S(N)(=O)=O [Pazopanib] (first compound 1 µM, partner dose 2 µM) was tested. Which cell count did it give?
**A.** 82.3%

**Q.** For O=C(Nc1cccc(Cl)c1)Nc1ncc(CCNc2ncnc3ccsc23)s1 + Oc1cc(-c2nc(-c3ccccc3)[nH]c2-c2ccncc2)ccc1Cl [L779450] (first compound 0.004 µM, partner dose 1 µM), which cell count is on record?
**A.** 88.6%

**Q.** With COc1cc(Nc2ncc(F)c(Nc3ccc4c(n3)NC(=O)C(C)(C)O4)n2)cc(OC)c1OC [Tamatinib] + CCN(CC)CCCCNc1ncc2cc(-c3cc(OC)cc(OC)c3)c(NC(=O)NC(C)(C)C)nc2n1 [PD173074] (first compound 2 µM, partner dose 0.5 µM) as the compound, how does the cell count read?
**A.** 77%

**Q.** With O=c1[nH]nc(Sc2ncc([N+](=O)[O-])s2)n1-c1ccc2c(c1)OCCO2 + Nc1ncn([C@H]2C[C@H](O)[C@@H](CO)O2)c(=O)n1 [decitabine] (first compound 1 µM, partner dose 0.5 µM) as the compound, how does the cell count read?
**A.** 69.6%

**Q.** With O=c1[nH]nc(Sc2ncc([N+](=O)[O-])s2)n1-c1ccc2c(c1)OCCO2 + C[C@]1(O)C[C@@H](c2nc(-c3ccc4ccc(-c5ccccc5)nc4c3)c3c(N)nccn32)C1 [OSI906] (first compound 1 µM, partner dose 2 µM) as the compound, how does the cell count read?
**A.** 87.2%

**Q.** With O=c1[nH]nc(Sc2ncc([N+](=O)[O-])s2)n1-c1ccc2c(c1)OCCO2 + CCCCCCCCc1ccc(CCC(N)(CO)CO)cc1 [fingolimod] (first compound 1 µM, partner dose 10 µM) as the compound, how does the cell count read?
**A.** 11.2%

**Q.** With O=c1[nH]nc(Sc2ncc([N+](=O)[O-])s2)n1-c1ccc2c(c1)OCCO2 + COc1ccc(-c2ccc3c(N4CCOCC4)nc(N4C[C@@H](C)O[C@@H](C)C4)nc3n2)cc1CO [KU0063794] (first compound 1 µM, partner dose 0.1 µM) as the compound, how does the cell count read?
**A.** 92.5%

**Q.** Which cell count does the source give for COc1cc(Nc2ncc(F)c(Nc3ccc4c(n3)NC(=O)C(C)(C)O4)n2)cc(OC)c1OC [Tamatinib] + c1cc(-c2cnn3cc(-c4ccc(OCCN5CCCCC5)cc4)cnc23)ccn1 [Dorsomorphin] (first compound 2 µM, partner dose 2 µM) here?
**A.** 53.8%

**Q.** O=C(Nc1cccc(Cl)c1)Nc1ncc(CCNc2ncnc3ccsc23)s1 + O=C1NC(=O)/C(=C/c2ccc(-c3ccc(F)cc3O)o2)S1 [AS252424] (first compound 0.004 µM, partner dose 5 µM) was tested. Which cell count did it give?
**A.** 80.3%
